Data as given in publication PMC12820563, “FoxP3 forms a head-to-head dimer in vivo and stabilizes its multimerization on adjacent microsatellites”.
This is one part of the list.

Target: T1, MBP-FoxP1dN (Mus musculus, UniProt P58462 326-579)
T1 sequence: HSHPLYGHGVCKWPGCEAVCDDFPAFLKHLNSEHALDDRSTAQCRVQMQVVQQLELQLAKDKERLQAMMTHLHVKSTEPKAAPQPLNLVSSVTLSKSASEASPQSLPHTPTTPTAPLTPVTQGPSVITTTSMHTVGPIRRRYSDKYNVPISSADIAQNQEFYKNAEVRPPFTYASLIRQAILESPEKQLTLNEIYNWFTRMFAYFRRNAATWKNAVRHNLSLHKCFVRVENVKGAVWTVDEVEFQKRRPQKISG
Test: PD-seq (MBP pull-down with sequencing); 20 mM Tris-HCl pH 7.5, 100 mM NaCl, 1.5 mM MgCl2, 0.4 uM protein, 0.1 uM dsDNA library, 30 min, room temperature, amylose pull-down; high values mean tight binding
Settings: protein: recombinant; tags: His6-MBP; chain copies: 2; dsDNA, one strand shown
Summary of the method: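 Binding is given as reads-per-million enrichment, pull-down over input, with replicates pooled. The bait was an N-terminus-lacking mouse FoxP3 or FoxP1 fragment with a His6-MBP tag, expressed in E. coli and used at 0.4 µM with 0.1 µM Klenow-filled degenerate double-stranded DNA library for 30 min at room temperature in Tris pH 7.5 buffer with NaCl and MgCl2. Amylose resin pull-down with three washes was followed by proteinase K release, PCR barcoding and Illumina sequencing.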

First: GATGATTGTTCTCCCAGCTGATGAATTCGCCTAATCGAGTAAACAAATTTTCCTAATCTTTCTGTTCAAGCGCCATCTAC
Second: GATGATTGTTCTCCCAGCTGATGAATTGAATCTGTCGAGTAAACAAATTTTCCTAATCTTTCTGTTCAAGCGCCATCTAC
The binding signal of the first is higher: 0.938 RPM ratio (pull-down/input) for the first, 0.897 RPM ratio (pull-down/input) for the second.

Going from “GATGATTGTTCTCCCAGCTGATGAATTCCCTGATTCGAGTAAACAAATTTTCCTAATCTTTCTGTTCAAGCGCCATCTAC” to “GATGATTGTTCTCCCAGCTGATGAATTCAACATCTCGAGTAAACAAATTTTCCTAATCTTTCTGTTCAAGCGCCATCTAC”, the binding signal rises from 0.807 RPM ratio (pull-down/input) to 0.898 RPM ratio (pull-down/input).

Going from “GATGATTGTTCTCCCAGCTGATGAATTCTACCCTTCGAGTAAACAAATTTTCCTAATCTTTCTGTTCAAGCGCCATCTAC” to “GATGATTGTTCTCCCAGCTGATGAATTTTTTATGTCGAGTAAACAAATTTTCCTAATCTTTCTGTTCAAGCGCCATCTAC”, the binding signal rises from 0.884 RPM ratio (pull-down/input) to 1.04 RPM ratio (pull-down/input).

Compared with “GATGATTGTTCTCCCAGCTGATGAATTGAAAACTTCGAGTAAACAAATTTTCCTAATCTTTCTGTTCAAGCGCCATCTAC”, “GATGATTGTTCTCCCAGCTGATGAATTCTGATATTCGAGTAAACAAATTTTCCTAATCTTTCTGTTCAAGCGCCATCTAC” is higher in binding signal: 0.915 RPM ratio (pull-down/input) for the first, 0.931 RPM ratio (pull-down/input) for the second.

First: GATGATTGTTCTCCCAGCTGATGAATTACGAAGATCGAGTAAACAAATTTTCCTAATCTTTCTGTTCAAGCGCCATCTAC
Second: GATGATTGTTCTCCCAGCTGATGAATTTTTCGCATCGAGTAAACAAATTTTCCTAATCTTTCTGTTCAAGCGCCATCTAC
The binding signal of the first is lower: 0.987 RPM ratio (pull-down/input) for the first, 1.25 RPM ratio (pull-down/input) for the second.

First: GATGATTGTTCTCCCAGCTGATGAATTTGCACGTTCGAGTAAACAAATTTTCCTAATCTTTCTGTTCAAGCGCCATCTAC
Second: GATGATTGTTCTCCCAGCTGATGAATTTTCTCGCTCGAGTAAACAAATTTTCCTAATCTTTCTGTTCAAGCGCCATCTAC
The binding signal of the first is higher: 0.98 RPM ratio (pull-down/input) for the first, 0.931 RPM ratio (pull-down/input) for the second.

First: GATGATTGTTCTCCCAGCTGATGAATTTAAGCGGTCGAGTAAACAAATTTTCCTAATCTTTCTGTTCAAGCGCCATCTAC
Second: GATGATTGTTCTCCCAGCTGATGAATTTCGTAGCTCGAGTAAACAAATTTTCCTAATCTTTCTGTTCAAGCGCCATCTAC
The binding signal of the first is lower: 0.823 RPM ratio (pull-down/input) for the first, 0.851 RPM ratio (pull-down/input) for the second.

Going from “GATGATTGTTCTCCCAGCTGATGAATTATGCTGTTCGAGTAAACAAATTTTCCTAATCTTTCTGTTCAAGCGCCATCTAC” to “GATGATTGTTCTCCCAGCTGATGAATTTACCATCTCGAGTAAACAAATTTTCCTAATCTTTCTGTTCAAGCGCCATCTAC”, the binding signal falls from 1.25 RPM ratio (pull-down/input) to 1.19 RPM ratio (pull-down/input).

First: GATGATTGTTCTCCCAGCTGATGAATTGGGTACCTCGAGTAAACAAATTTTCCTAATCTTTCTGTTCAAGCGCCATCTAC
Second: GATGATTGTTCTCCCAGCTGATGAATTGTCGGATTCGAGTAAACAAATTTTCCTAATCTTTCTGTTCAAGCGCCATCTAC
The binding signal of the first is lower: 0.88 RPM ratio (pull-down/input) for the first, 0.94 RPM ratio (pull-down/input) for the second.

First: GATGATTGTTCTCCCAGCTGATGAATTGTTAGTTTCGAGTAAACAAATTTTCCTAATCTTTCTGTTCAAGCGCCATCTAC
Second: GATGATTGTTCTCCCAGCTGATGAATTATTATGATCGAGTAAACAAATTTTCCTAATCTTTCTGTTCAAGCGCCATCTAC
The binding signal of the first is higher: 1.7 RPM ratio (pull-down/input) for the first, 1.41 RPM ratio (pull-down/input) for the second.

Going from “GATGATTGTTCTCCCAGCTGATGAATTGAGAACCTCGAGTAAACAAATTTTCCTAATCTTTCTGTTCAAGCGCCATCTAC” to “GATGATTGTTCTCCCAGCTGATGAATTTAACCTATCGAGTAAACAAATTTTCCTAATCTTTCTGTTCAAGCGCCATCTAC”, the binding signal rises from 0.752 RPM ratio (pull-down/input) to 0.851 RPM ratio (pull-down/input).

First: GATGATTGTTCTCCCAGCTGATGAATTCTCGTCCTCGAGTAAACAAATTTTCCTAATCTTTCTGTTCAAGCGCCATCTAC
Second: GATGATTGTTCTCCCAGCTGATGAATTCTATACATCGAGTAAACAAATTTTCCTAATCTTTCTGTTCAAGCGCCATCTAC
The binding signal of the first is lower: 0.786 RPM ratio (pull-down/input) for the first, 1.08 RPM ratio (pull-down/input) for the second.

Going from “GATGATTGTTCTCCCAGCTGATGAATTATACCCGTCGAGTAAACAAATTTTCCTAATCTTTCTGTTCAAGCGCCATCTAC” to “GATGATTGTTCTCCCAGCTGATGAATTGCAGCCATCGAGTAAACAAATTTTCCTAATCTTTCTGTTCAAGCGCCATCTAC”, the binding signal rises from 0.898 RPM ratio (pull-down/input) to 1.1 RPM ratio (pull-down/input).

Going from “GATGATTGTTCTCCCAGCTGATGAATTAGACCTCTCGAGTAAACAAATTTTCCTAATCTTTCTGTTCAAGCGCCATCTAC” to “GATGATTGTTCTCCCAGCTGATGAATTTGAGAGTTCGAGTAAACAAATTTTCCTAATCTTTCTGTTCAAGCGCCATCTAC”, the binding signal rises from 0.791 RPM ratio (pull-down/input) to 0.826 RPM ratio (pull-down/input).

Compared with “GATGATTGTTCTCCCAGCTGATGAATTGCCGGGCTCGAGTAAACAAATTTTCCTAATCTTTCTGTTCAAGCGCCATCTAC”, “GATGATTGTTCTCCCAGCTGATGAATTGGTGCTGTCGAGTAAACAAATTTTCCTAATCTTTCTGTTCAAGCGCCATCTAC” is higher in binding signal: 0.798 RPM ratio (pull-down/input) for the first, 1.15 RPM ratio (pull-down/input) for the second.

Compared with “GATGATTGTTCTCCCAGCTGATGAATTAGATCGTTCGAGTAAACAAATTTTCCTAATCTTTCTGTTCAAGCGCCATCTAC”, “GATGATTGTTCTCCCAGCTGATGAATTGTCTTGGTCGAGTAAACAAATTTTCCTAATCTTTCTGTTCAAGCGCCATCTAC” is lower in binding signal: 0.973 RPM ratio (pull-down/input) for the first, 0.917 RPM ratio (pull-down/input) for the second.

Going from “GATGATTGTTCTCCCAGCTGATGAATTAGTAACTTCGAGTAAACAAATTTTCCTAATCTTTCTGTTCAAGCGCCATCTAC” to “GATGATTGTTCTCCCAGCTGATGAATTTTTCCAGTCGAGTAAACAAATTTTCCTAATCTTTCTGTTCAAGCGCCATCTAC”, the binding signal falls from 1.08 RPM ratio (pull-down/input) to 0.889 RPM ratio (pull-down/input).

Going from “GATGATTGTTCTCCCAGCTGATGAATTTTCCTGGTCGAGTAAACAAATTTTCCTAATCTTTCTGTTCAAGCGCCATCTAC” to “GATGATTGTTCTCCCAGCTGATGAATTGCTATGCTCGAGTAAACAAATTTTCCTAATCTTTCTGTTCAAGCGCCATCTAC”, the binding signal rises from 0.82 RPM ratio (pull-down/input) to 1.01 RPM ratio (pull-down/input).

First: GATGATTGTTCTCCCAGCTGATGAATTTTAAATGTCGAGTAAACAAATTTTCCTAATCTTTCTGTTCAAGCGCCATCTAC
Second: GATGATTGTTCTCCCAGCTGATGAATTTTATAAGTCGAGTAAACAAATTTTCCTAATCTTTCTGTTCAAGCGCCATCTAC
The binding signal of the first is higher: 0.957 RPM ratio (pull-down/input) for the first, 0.919 RPM ratio (pull-down/input) for the second.

Going from “GATGATTGTTCTCCCAGCTGATGAATTGACCAATTCGAGTAAACAAATTTTCCTAATCTTTCTGTTCAAGCGCCATCTAC” to “GATGATTGTTCTCCCAGCTGATGAATTAAGTTCTTCGAGTAAACAAATTTTCCTAATCTTTCTGTTCAAGCGCCATCTAC”, the binding signal falls from 1.14 RPM ratio (pull-down/input) to 0.916 RPM ratio (pull-down/input).
